# Results as given in PubChem BioAssay AID485360 (National Center for Advancing Translational Sciences (NCATS), 2010).
# Screen size: about 230,000 compounds; about 1,500 (0.65%) were called active. This list was built around the results that the source calls inconclusive (neither active nor inactive); the mix of calls is not that of the screen. The call rests on the fitted dose curve; in most records, active means well fitted inhibition curve with a large enough effect; inconclusive means small, poorly fitted or top-dose-only effect; inactive means no such curve, though single readings can be large or run the other way. A potency beside an inconclusive call is a rough fit, not a confirmed value.
# Biological target: Lethal(3)malignant brain tumor-like protein 1 (Homo sapiens) (UniProt Q9Y468)
# Experiment: qHTS Assay for the Inhibitors of L3MBTL1; further: nearly all actives have a fitted effect of over 60% in size
# Conditions: AlphaScreen L3MBTL1–H3K9me1 peptide binding; activity, negative = inhibition: at 57.1 µM (top of the series)
# Summary of the method: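 First, the protein-peptide complex forms for 30 min at room temperature (L3MBTL1 50 nM, biotinylated H3K9me1 peptide 75 nM). Next, compounds are pin-transferred and incubated 30 min. Finally, AlphaScreen beads are added and read after 30 min.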
# On the % scale 0 is the no-effect control and ±100 the full control effect; potency means the concentration at half of the fitted maximal effect; tags describe the fitted curve by direction and shape.
# Chain of UniProt Q9Y468 (Q9Y468 whole entry, looked up): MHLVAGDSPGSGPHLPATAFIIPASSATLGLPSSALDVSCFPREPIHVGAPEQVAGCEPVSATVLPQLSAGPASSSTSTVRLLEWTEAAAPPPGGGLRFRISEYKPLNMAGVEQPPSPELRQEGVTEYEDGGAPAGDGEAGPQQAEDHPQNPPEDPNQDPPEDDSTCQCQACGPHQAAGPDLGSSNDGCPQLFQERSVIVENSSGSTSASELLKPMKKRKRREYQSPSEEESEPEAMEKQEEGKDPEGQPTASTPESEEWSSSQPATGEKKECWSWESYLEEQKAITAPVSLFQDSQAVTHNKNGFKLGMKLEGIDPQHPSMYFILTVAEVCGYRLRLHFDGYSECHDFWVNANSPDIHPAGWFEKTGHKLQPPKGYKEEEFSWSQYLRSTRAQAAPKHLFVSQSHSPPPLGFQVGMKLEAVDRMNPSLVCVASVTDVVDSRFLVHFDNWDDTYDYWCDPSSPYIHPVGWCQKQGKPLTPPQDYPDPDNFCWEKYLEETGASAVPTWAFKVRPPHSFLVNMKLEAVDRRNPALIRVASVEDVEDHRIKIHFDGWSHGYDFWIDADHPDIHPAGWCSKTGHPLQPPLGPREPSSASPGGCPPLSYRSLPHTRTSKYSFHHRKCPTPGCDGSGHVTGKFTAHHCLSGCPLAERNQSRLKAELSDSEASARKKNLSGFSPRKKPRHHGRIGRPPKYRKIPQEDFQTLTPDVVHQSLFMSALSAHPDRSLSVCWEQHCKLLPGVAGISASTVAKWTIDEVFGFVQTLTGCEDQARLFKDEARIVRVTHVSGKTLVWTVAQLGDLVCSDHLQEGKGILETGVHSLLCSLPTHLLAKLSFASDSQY
Structure (SMILES),"activity, negative = inhibition",Potency
CCC(C)NS(=O)(=O)c1ccc(S(=O)(=O)Nc2cc3c(cc2C(C)=O)OCO3)cc1 (centres undefined),inactive: -3.56%,
CN(C(=S)Nc1ccccc1)c1ccccc1,inactive: 9.24%,
Cc1ccnc(NC(=O)c2ccc(OCc3c(C)noc3C)cc2)c1,,"inconclusive: 0.708 µM [inhibitor, single point]"
Cc1oc(-c2ccc3ccccc3c2)nc1CN(C)C(C)c1ccncn1 (centres undefined),,"inconclusive: 39.8 µM [inhibitor, single point]"
Cc1ccc(-c2cc(C(=O)Nc3ccccn3)c3ccccc3n2)o1,,"inconclusive: 14.1 µM [inhibitor, partial curve]"
CCCC(=O)NC(c1ccc(N(C)C)cc1)c1ccc2cccnc2c1O (centres undefined),,"inconclusive: 39.8 µM [inhibitor, single point]"
CCOC(=O)N1CCN(C(=O)c2cnsn2)CC1,,"inconclusive: 39.8 µM [inhibitor, single point]"
CN(C)c1ccc(CNc2ncc(Br)cc2Br)cc1,,"inconclusive: 14.1 µM [inhibitor, partial curve]"
CCN(CC)c1ccc(/C=N/Nc2ccc(C)cc2)c(O)c1,,"inconclusive: 39.8 µM [inhibitor, single point]"
Cc1ccc(C(=O)O)cc1-c1ccc(/C=C2\SC(=O)N(CC(=O)Nc3ccccc3)C2=O)o1,,"inconclusive: 39.8 µM [inhibitor, single point]"
COc1ccccc1-c1n[nH]c(=S)n1-c1ccccc1,inactive: -3.83%,
Cc1cccc(N2CCN(C(=S)c3ccc([N+](=O)[O-])cc3)CC2)c1,,"inconclusive: 39.8 µM [inhibitor, single point]"
O=C(O)COc1ccccc1/C=N/NC(=O)CSc1nc2ccccc2n1Cc1ccccc1Cl,inactive: -11.2%,
O=C(NCCCn1ccnc1)c1cccc(S(=O)(=O)Nc2ccc(Br)cc2)c1,,"inconclusive: 25.1 µM [inhibitor, single point]"
Cc1ccn2c(=O)nc(SCC(=O)OCc3ccccc3)nc2c1,,"inconclusive: 39.8 µM [inhibitor, single point]"
CCCCOc1ccc(/C=C/C(=O)OCC(=O)NC2CCS(=O)(=O)C2)cc1OCC (centres undefined),inactive: -0.7%,
NC1=NC(=O)/C(=C/c2ccccc2OS(=O)(=O)c2ccc3ccccc3c2)S1,,"inconclusive: 6.31 µM [inhibitor, single point]"
c1ccc(Nc2scc(-c3ccccc3)[n+]2Cc2ccco2)cc1,,"inconclusive: 5.01 µM [inhibitor, full curve]"
Cc1noc(C)c1C(=O)OCC(=O)NC1CCCCC1C (centres undefined),,"inconclusive: 0.708 µM [inhibitor, single point]"
